The supplement of paper PMC8728848
The list shows a part of the results.

What was measured:
Assay in all cases: glycan array binding signal (z-score within array); higher = stronger binding
Details in all cases: glycan notation: IUPAC condensed, linker removed
[1] = target: Neu5Ac(a2-3)Gal(b1-4)[Fuc(a1-3)]GlcNAc(b1-3)Gal
Summary of the method: (§1)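 Glycan array binding is given as a within-array Z-score, which can be read as non-binding when negative. The arrays, 3228 of them, came from the Consortium for Functional Glycomics database and were retained only where the protein sequence was available. Z-scores were averaged across arrays of the same protein sequence at different concentrations or buffers and across linkers.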

[2] = target: Neu5Ac(a2-3)Gal(b1-4)[Fuc(a1-3)]GlcNAc(b1-3)Gal(b1-4)Glc
Summary of the method: as §1

[3] = target: Neu5Ac(a2-3)Gal(b1-4)[Fuc(a1-3)]GlcNAc(b1-3)Gal(b1-4)[Fuc(a1-3)]GlcNAc(b1-3)Gal(b1-4)Glc
Summary of the method: as §1

[4] = target: Neu5Ac(a2-3)Gal(b1-4)[Fuc(a1-3)]GlcNAc(b1-4)GalNAc(b1-3)Gal(b1-4)Glc
Summary of the method: as §1

[5] = target: Neu5Ac(a2-3)Gal(b1-4)[Fuc(a1-3)]GlcNAc(b1-6)Gal(b1-4)Glc
Summary of the method: as §1

[6] = target: Neu5Ac(a2-3)Gal(b1-4)[Fuc(a1-3)]GlcNAc6S(b1-3)Gal(b1-4)Glc
Summary of the method: as §1

[7] = target: Neu5Ac(a2-3)Gal(b1-4)[Fuc2Me(a1-3)]GlcNAc(b1-3)Gal
Summary of the method: as §1

[8] = target: Neu5Ac(a2-3)Gal(b1-4)[Qui(a1-3)]GlcNAc(b1-3)Gal
Summary of the method: as §1

[9] = target: Neu5Ac(a2-3)Gal(b1-4)[Rha(a1-3)]GlcNAc(b1-3)Gal
Summary of the method: as §1

Neu5Ac(a2-3)Gal3S = target: Neu5Ac(a2-3)Gal3S
Summary of the method: as §1

[10] = target: Neu5Ac(a2-3)Gal6S(b1-4)[Fuc(a1-3)]GlcNAc(b1-3)Gal(b1-4)Glc
Summary of the method: as §1

[11] = target: Neu5Ac(a2-3)Gal6S(b1-4)[Fuc(a1-3)]GlcNAc6S(b1-3)Gal(b1-4)Glc
Summary of the method: as §1

[12] = target: Neu5Ac(a2-3)GalNAc(b1-4)GlcNAc
Summary of the method: as §1

[13] = target: Neu5Ac(a2-3)GalNBz(b1-4)GlcNAc
Summary of the method: as §1

[14] = target: Neu5Ac(a2-3)[GalNAc(b1-4)]Gal(b1-3)Gal
Summary of the method: as §1

[15] = target: Neu5Ac(a2-3)[GalNAc(b1-4)]Gal(b1-3)GalNAc(b1-4)[Neu5Ac(a2-3)]Gal(b1-4)Glc
Summary of the method: as §1

[16] = target: Neu5Ac(a2-3)[GalNAc(b1-4)]Gal(b1-3)Glc
Summary of the method: as §1

[17] = target: Neu5Ac(a2-3)[GalNAc(b1-4)]Gal(b1-4)Glc
Summary of the method: as §1

[18] = target: Neu5Ac(a2-3)[GalNAc(b1-6)]Gal(b1-4)Glc
Summary of the method: as §1

Neu5Ac(a2-6)Gal = target: Neu5Ac(a2-6)Gal
Summary of the method: as §1

[19] = target: Neu5Ac(a2-6)Gal(b1-3)GalNAc(b1-4)Gal(b1-4)Glc
Summary of the method: as §1

[20] = target: Neu5Ac(a2-6)Gal(b1-3)GlcNAc(b1-3)[Fuc(a1-3)[Gal(b1-4)]GlcNAc(b1-6)]Gal(b1-4)Glc
Summary of the method: as §1

[21] = target: Neu5Ac(a2-6)Gal(b1-3)GlcNAc(b1-3)[Gal(b1-4)GlcNAc(b1-6)]Gal(b1-4)Glc
Summary of the method: as §1

[22] = target: Neu5Ac(a2-6)Gal(b1-3)[Neu5Ac(a2-6)]GalNAc(b1-4)Gal(b1-4)Glc
Summary of the method: as §1

Neu5Ac(a2-6)Gal(b1-4)Glc = target: Neu5Ac(a2-6)Gal(b1-4)Glc
Summary of the method: as §1

[23] = target: Neu5Ac(a2-6)Gal(b1-4)GlcNAc
Summary of the method: as §1

[24] = target: Neu5Ac(a2-6)Gal(b1-4)GlcNAc(b1-2)Man(a1-3)[Neu5Ac(a2-6)Gal(b1-4)GlcNAc(b1-2)Man(a1-6)]Man(b1-4)GlcNAc(b1-4)GlcNAc
Summary of the method: as §1

[25] = target: Neu5Ac(a2-6)Gal(b1-4)GlcNAc(b1-2)Man(a1-3)[Neu5Gc(a2-6)Gal(b1-4)GlcNAc(b1-2)Man(a1-6)]Man(b1-4)GlcNAc(b1-4)GlcNAc
Summary of the method: as §1

[26] = target: Neu5Ac(a2-6)Gal(b1-4)GlcNAc(b1-2)[Neu5Ac(a2-3)Gal(b1-4)GlcNAc(b1-4)]Man(a1-3)[Neu5Ac(a2-3)Gal(b1-4)GlcNAc(b1-2)Man(a1-6)]Man(b1-4)GlcNAc(b1-4)GlcNAc
Summary of the method: as §1

[27] = target: Neu5Ac(a2-6)Gal(b1-4)GlcNAc(b1-3)Gal(b1-4)Glc
Summary of the method: as §1

[28] = target: Neu5Ac(a2-6)Gal(b1-4)GlcNAc(b1-3)Gal(b1-4)[Fuc(a1-3)]Glc
Summary of the method: as §1

[29] = target: Neu5Ac(a2-6)Gal(b1-4)GlcNAc(b1-3)[Neu5Ac(a2-6)Gal(b1-4)GlcNAc(b1-6)]Gal(b1-4)Glc
Summary of the method: as §1

[30] = target: Neu5Ac(a2-6)Gal(b1-4)GlcNAc(b1-6)[Gal(b1-3)GlcNAc(b1-3)]Gal(b1-4)Glc
Summary of the method: as §1

[31] = target: Neu5Ac(a2-6)Gal(b1-4)[Fuc(a1-3)]GlcNAc(b1-3)Gal(b1-4)Glc
Summary of the method: as §1

[32] = target: Neu5Ac(a2-6)Gal(b1-6)GalNAc(b1-4)Gal(b1-4)Glc
Summary of the method: as §1

Neu5Ac(a2-6)Gal6S = target: Neu5Ac(a2-6)Gal6S
Summary of the method: as §1

[33] = target: Neu5Ac(a2-6)Gal6S(b1-4)Glc
Summary of the method: as §1

[34] = target: Neu5Ac(a2-6)Gal6S(b1-4)Glc4S
Summary of the method: as §1

Neu5Ac(a2-6)GalNAc = target: Neu5Ac(a2-6)GalNAc
Summary of the method: as §1

Neu5Ac(a2-6)Glc = target: Neu5Ac(a2-6)Glc
Summary of the method: as §1

Neu5Ac(a2-6)Glc6S = target: Neu5Ac(a2-6)Glc6S
Summary of the method: as §1

Neu5Ac(a2-6)GlcNAc = target: Neu5Ac(a2-6)GlcNAc
Summary of the method: as §1

Neu5Ac(a2-6)GlcNAc6S = target: Neu5Ac(a2-6)GlcNAc6S
Summary of the method: as §1

Neu5Ac(a2-8)Neu5Ac = target: Neu5Ac(a2-8)Neu5Ac
Summary of the method: as §1

[35] = target: Neu5Ac(a2-8)Neu5Ac(a2-3)Gal
Summary of the method: as §1

Measured: glycan array binding signal (z-score)

B1: ZG16p (Homo sapiens), O60844 (protein)
chain: ARSSSYSGEYGGGGGKRFSHSGNQLDGPITALRVRVNTYYIVGLQVRYGKVWSDYVGGRNGDLEEIFLHPGESVIQVSGKYKWYLKKLLFVTDKGRYLSFGKDSGTSFNAVPLHPNTVLRFISGRSGSLIDAIGLHWDVYPSSCSRC
-0.288: [13]
-0.293: [33]
-0.251: Neu5Ac(a2-6)Glc6S
-0.42: [24]
-0.317: [23]
-0.141: Neu5Ac(a2-6)GlcNAc
-0.26: Neu5Ac(a2-6)Gal6S
-0.266: Neu5Ac(a2-6)Gal(b1-4)Glc
-0.328: all other assays above
